In a compilation of properties of binary mixtures (doi:10.1021/acs.jced.0c00987):
The densities may have been worked out from excess volumes.

Assay: xn = mol fraction of the nth substance listed
Details: 100 kPa

CC[n+]1ccn(C)c1.O=S(=O)([O-])C(F)(F)F + OCC(O)CO
mass density [kg/m3]
Details | 293.15 K | 298.15 K | 303.15 K | 313.15 K
x1 = 0.002 | – | 1258 | 1255 | 1248
x1 = 0.004 | 1262 | 1258 | 1255 | 1249
x1 = 0.011 | 1264 | 1260 | 1257 | 1251
x1 = 0.018 | 1266 | 1262 | 1259 | –
x2 = 0.199 | – | 1369 | 1365 | 1358
x2 = 0.299 | 1364 | 1360 | 1356 | –
x2 = 0.401 | 1356 | – | 1347 | 1340
x2 = 0.499 | 1346 | 1342 | 1338 | 1330
x2 = 0.605 | – | 1330 | 1326 | 1318
x2 = 0.698 | – | 1314 | 1310 | 1303
x2 = 0.805 | 1303 | 1299 | 1295 | 1288
x2 = 0.899 | 1286 | 1282 | 1279 | 1271
x2 = 0.919 | 1281 | 1278 | 1274 | 1267
x2 = 0.962 | – | 1268 | – | 1258

CCOS(=O)(=O)[O-].CC[n+]1ccn(C)c1 + OCCO
mass density [kg/m3]
Details | 293.15 K | 298.15 K | 303.15 K | 313.15 K
x1 = 0.001 | – | – | 1105 | 1098.5
x1 = 0.003 | 1113 | 1109 | – | –
x1 = 0.008 | 1116 | 1112 | 1109 | –
x1 = 0.014 | 1118 | 1114 | 1111 | 1104
x2 = 0.304 | 1217 | 1213 | 1208 | 1208
x2 = 0.406 | – | 1208 | 1205 | –
x2 = 0.506 | 1206 | 1202 | 1199 | 1192
x2 = 0.597 | 1196 | – | 1189 | 1182
x2 = 0.7 | 1182 | 1179 | 1175 | 1168
x2 = 0.792 | 1167 | 1163 | – | 1153
x2 = 0.851 | 1156 | – | 1148 | 1142
x2 = 0.899 | 1144 | 1141 | 1137 | 1130
x2 = 0.938 | 1134 | 1130 | 1126 | –
x2 = 0.972 | 1124 | 1120 | 1116 | 1110

CC[n+]1ccn(C)c1.O=S(=O)([O-])C(F)(F)F + OCCO
mass density [kg/m3]
Details | 293.15 K | 298.15 K | 303.15 K | 313.15 K
x1 = 0.001 | 1114 | – | 1106 | 1100
x1 = 0.002 | 1115 | 1111 | – | 1101
x1 = 0.007 | – | 1115 | 1112 | 1105
x1 = 0.013 | 1123 | 1119 | – | 1109
x2 = 0.2 | 1362 | 1357 | – | 1345
x2 = 0.413 | 1330 | 1326 | 1321 | 1314
x2 = 0.497 | 1317 | 1313 | 1308 | –
x2 = 0.587 | 1299 | 1295 | 1291 | 1283
x2 = 0.697 | 1268 | 1264 | 1260 | 1252
x2 = 0.808 | 1229 | 1225 | 1221 | –
x2 = 0.863 | 1203 | 1199 | 1195 | 1187
x2 = 0.907 | 1179 | 1175 | 1171 | 1164
x2 = 0.944 | 1157 | 1153 | 1150 | 1143
x2 = 0.974 | – | 1131 | 1128 | 1121
